Laboratory results: PubChem BioAssay AID1347165 (National Center for Advancing Translational Sciences (NCATS), 2019)
“And” between values parts separate entries of the source, which are not always exact repeats. Equal entries are not always repeated. Among all 220,000 compounds or so, about 5,700 (2.6%) were called active. Inconclusive means that the source gave no clear call. Such entries were picked first, then a sample of the others. The call rests on the fitted dose curve; in most records, active means well fitted inhibition curve with a large enough effect; inconclusive means small, poorly fitted or top-dose-only effect; inactive means no such curve, though single readings can be large or run the other way. Potencies of inconclusive entries are doubtful fits and often do not repeat.

molecular target: Lysine-specific demethylase 5B (Homo sapiens) (UniProt Q9UGL1); assay: Primary screen for KDM5B Histone Demethylases FDH-coupled qHTS; conditions: FDH-coupled NADH fluorescence (FDH is formaldehyde dehydrogenase); activity change, negative = inhibition: at 57.7 µM (top of the series) unless noted; further: nearly all actives have a fitted effect of over 70% in size; on activity change, negative = inhibition: 0% is about no effect
In short: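 Compound dilutions met 200 nM (final) KDM5BΔAP for 10 min at room temperature before substrate addition. The substrate mix held 12.5 µM H3K4me3 with cofactors 25 µM α-ketoglutarate and 50 µM Fe²⁺. NADH signal gain over 30 min defined activity.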
Potency means the concentration at half of the fitted maximal effect; tags describe the fitted curve by direction and shape.

Sequence of UniProt Q9UGL1 (Q9UGL1 whole entry, looked up): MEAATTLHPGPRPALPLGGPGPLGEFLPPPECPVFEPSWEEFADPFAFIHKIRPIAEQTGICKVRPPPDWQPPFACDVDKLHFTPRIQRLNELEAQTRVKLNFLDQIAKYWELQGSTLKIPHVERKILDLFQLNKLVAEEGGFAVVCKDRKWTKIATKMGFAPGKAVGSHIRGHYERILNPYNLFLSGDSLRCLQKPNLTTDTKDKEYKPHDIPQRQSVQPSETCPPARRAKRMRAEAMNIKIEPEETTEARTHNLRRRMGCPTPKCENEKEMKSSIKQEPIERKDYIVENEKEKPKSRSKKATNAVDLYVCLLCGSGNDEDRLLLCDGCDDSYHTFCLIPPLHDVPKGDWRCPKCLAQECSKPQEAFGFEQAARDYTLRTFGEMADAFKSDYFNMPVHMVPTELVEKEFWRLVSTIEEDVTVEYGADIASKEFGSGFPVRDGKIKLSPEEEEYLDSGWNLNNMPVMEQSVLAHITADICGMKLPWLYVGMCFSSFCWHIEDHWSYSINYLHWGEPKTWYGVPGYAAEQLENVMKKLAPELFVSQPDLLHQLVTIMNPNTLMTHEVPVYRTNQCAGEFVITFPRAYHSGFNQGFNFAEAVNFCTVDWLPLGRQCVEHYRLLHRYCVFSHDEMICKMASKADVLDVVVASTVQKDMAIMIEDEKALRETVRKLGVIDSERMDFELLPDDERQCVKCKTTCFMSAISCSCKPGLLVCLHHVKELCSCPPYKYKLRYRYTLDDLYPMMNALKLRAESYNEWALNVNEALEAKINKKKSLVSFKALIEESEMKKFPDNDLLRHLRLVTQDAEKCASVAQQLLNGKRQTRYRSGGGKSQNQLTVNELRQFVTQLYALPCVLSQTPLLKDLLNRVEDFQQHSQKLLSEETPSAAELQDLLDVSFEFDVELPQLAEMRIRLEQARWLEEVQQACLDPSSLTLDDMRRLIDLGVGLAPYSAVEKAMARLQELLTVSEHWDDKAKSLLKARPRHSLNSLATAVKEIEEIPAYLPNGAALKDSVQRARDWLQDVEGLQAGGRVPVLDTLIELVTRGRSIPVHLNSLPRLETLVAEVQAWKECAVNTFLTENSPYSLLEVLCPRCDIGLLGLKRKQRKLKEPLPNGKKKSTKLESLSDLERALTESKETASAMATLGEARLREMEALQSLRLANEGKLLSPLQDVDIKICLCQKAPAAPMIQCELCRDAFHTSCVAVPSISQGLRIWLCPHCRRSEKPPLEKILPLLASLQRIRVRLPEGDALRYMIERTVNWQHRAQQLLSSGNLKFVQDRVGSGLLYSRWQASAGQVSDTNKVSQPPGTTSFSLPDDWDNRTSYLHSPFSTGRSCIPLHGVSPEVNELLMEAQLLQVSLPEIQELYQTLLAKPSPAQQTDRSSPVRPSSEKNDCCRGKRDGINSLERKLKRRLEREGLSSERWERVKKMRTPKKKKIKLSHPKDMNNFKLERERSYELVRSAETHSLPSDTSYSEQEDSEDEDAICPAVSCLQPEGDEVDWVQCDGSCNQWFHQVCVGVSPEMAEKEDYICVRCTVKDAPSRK

Structure (SMILES)	Potency	activity change, negative = inhibition
CC(C)c1noc(-c2cccn3c(CNC(=O)c4c(F)cccc4F)nnc23)n1	active: 28.2 µM	–
C[S+](=O)([O-])c1ccc(-c2nc(C(=O)N3CCN(c4ncccn4)CC3)n3ccncc23)cc1	inconclusive: 56.2 µM [inhibitor, partial curve, poor fit]	–
Cc1ccc(S(=O)(=O)NCCc2csc(-c3cccc(F)c3)n2)cc1	inconclusive: 35.5 µM [inhibitor, single point]	–
O=C(NC1CC1)c1ccc2cncn2c1	active: 31.6 µM	–
COc1cc(Cl)c(C)cc1NC(=O)c1cnc(N2CCOCC2)c2ccccc12	inconclusive: 31.6 µM [inhibitor, single point]	–
O=C(NNC(=O)c1ccccc1OCC1CCCO1)c1cc2ccccc2cc1O (stereo not given)	inconclusive: 22.4 µM [inhibitor, partial curve, poor fit]	–
COc1ccc(NC(=O)C(C)Nc2ccc3oc(C)nc3c2)cc1 (stereo not given)	inconclusive: 2.82 µM [inhibitor, full curve, poor fit]	–
COc1cccc(C2=NN(C(=O)c3cccs3)C(c3ccc4nccnc4c3)C2)c1 (stereo not given)	inconclusive: 35.5 µM [inhibitor, single point]	–
Cc1cn2nc(C(=O)N3CCC(NC(=O)c4ccccc4F)CC3)cc2c(=O)[nH]1	inconclusive: 39.8 µM [inhibitor, partial curve, poor fit]	–
CCCCN(CC)C(=O)c1cc2c(=O)n3cccc(C)c3nc2s1	inconclusive: 28.2 µM [inhibitor, partial curve, poor fit] and inconclusive: 25.1 µM [inhibitor, partial curve, poor fit] and inconclusive: 20 µM [inhibitor, partial curve, poor fit]	–
N#CC1=C(N)OC2=C(C(=O)CC(c3cccs3)C2)C1c1ccccc1 (stereo not given)	–	inactive: -1.92%
COCc1cc(N2CCc3onc(-c4cccc5ccccc45)c3C2)ncn1	active: 28.2 µM	–
O=C1c2cc(N3CCOCC3)nc(-c3cccc(F)c3)c2CN1Cc1ccccc1	active: 31.6 µM	–
N#Cc1nc(C2CC2)oc1N1CCN(Cc2cccc(F)c2F)CC1	–	inactive: -3.3%
CNC(=O)c1cc[nH]c1C1CCCN(C(=O)c2ccc(C)[nH]c2=O)C1 (stereo not given)	inconclusive: 11.2 µM [inhibitor, partial curve, poor fit]	–
C=CCn1c(NCCOC)nc2c1c(=O)n(C)c(=O)n2C	–	inactive: 10.9%
Cc1ccccc1-n1nc(-c2c(C)nc3scc(CC(=O)NCC(C)C)n3c2=O)cc1C	active: 28.2 µM	–
O=C(Cn1c(=O)n(Cc2ccc3c(c2)OCO3)c(=O)c2oc3ccccc3c21)Nc1ccccc1F	inconclusive: 10 µM [inhibitor, partial curve, poor fit]	–
O=C1NCCCCCCN(Cc2cccc(F)c2)[C@H]2C[C@H](C(=O)N3CCc4ccccc4C3)C[C@@H]12	inconclusive: 11.2 µM [inhibitor, partial curve]	–
O=C(O)c1ccc(-c2ccc(Cc3ccc(-c4ccc(C(=O)O)cc4)o3)o2)cc1	inconclusive: 25.1 µM [inhibitor, single point]	–
O=C(CC1CCCCC1)NCc1nnc2c(-c3nc(C4CC4)no3)cccn12	active: 15.8 µM	–
COc1ccc(C(=O)Nc2ccc3c(c2)CCCN3C(=O)c2cccs2)c(OC)c1	inconclusive: 3.16 µM [inhibitor, full curve, poor fit]	–

Structure (SMILES)	Potency	activity change, negative = inhibition
CCO[C@H]1CN(C(=O)c2nc3ccccc3[nH]c2=O)C[C@@H]1O	active: 25.1 µM	–
CCCCN(C)C(=O)C1CCN(Cc2ccccc2)CC1	inconclusive: 25.1 µM [inhibitor, partial curve, poor fit]	–
COc1ccc(-c2nnc(SCC(=O)NC3CCCCC3)nc2-c2ccc(OC)cc2)cc1	inconclusive: 31.6 µM [inhibitor, partial curve, poor fit]	–
Cc1cn2nnc(C(=O)NCc3ccco3)c2c(=O)[nH]1	inconclusive: 25.1 µM [inhibitor, single point]	–
CC(C)CC(=O)N1CCCCCC1CN1CCC(C)CC1 (stereo not given)	inconclusive: 20 µM [inhibitor, partial curve, poor fit]	–
Cc1cccc2c(=O)c(-c3cccc4ccccc34)c(N)oc12	inconclusive: 35.5 µM [inhibitor, single point]	–
COc1cccc(NCc2nnc(C(=O)N3CCC[C@@H]3C(c3ccccc3)c3ccccc3)n2-c2cccnc2)c1	–	inactive: -8.76%
COC(CNC(=O)c1coc2nc3ccccc3nc12)OC	inconclusive: 31.6 µM [inhibitor, single point]	–
CN1CCN(c2ccccc2NC(=O)c2ccc(-c3cccc(Cl)c3)o2)CC1	inconclusive: 39.8 µM [inhibitor, single point]	–
O=C(CCCc1ccccc1)N1CCCC(Cc2nc(C3CCOCC3)no2)C1 (stereo not given)	inconclusive: 28.2 µM [inhibitor, single point]	–
CC(C)C(=O)N1CCOc2ccc(CN3CCc4ccccc4C3)cc2C1	inconclusive: 28.2 µM [inhibitor, partial curve, poor fit]	–
O=C(CCc1ccccc1)Nc1cccc2cccnc12	–	inactive: -6.05%
CNc1oc(-c2cc(S(=O)(=O)N(C)C)c(C)o2)nc1C#N	inconclusive: 28.2 µM [inhibitor, partial curve, poor fit]	–
CC(OC(=O)c1cc(=O)c2cc(Cl)ccc2o1)C(=O)N(C)c1ccccc1 (stereo not given)	–	inactive: 11.5%
O=C(Cn1ccn2nc(-c3ccccc3)c(CO)c2c1=O)N1CCCc2ccccc21	–	inactive: -1.99%
COc1ccc(CCNC(=O)c2cc3sccc3n2Cc2ccc(Cl)cc2)cc1OC	inconclusive: 5.01 µM [inhibitor, partial curve, poor fit]	–
CCOc1ccccc1CN1CCc2nc(Nc3ccc4c(c3)OCCO4)ncc2C1	inconclusive: 15.8 µM [inhibitor, partial curve, poor fit]	–
COC(=O)CCCn1c(C)cc(C(=O)COC(=O)c2nccnc2N)c1C	inconclusive: 28.2 µM [inhibitor, single point]	–
COCCCNC(=O)Cc1c(C)c2ccc(OC(C)=O)c(OC(C)=O)c2oc1=O	inconclusive: 28.2 µM [inhibitor, partial curve, poor fit]	–
COc1ccccc1C(C1=C(O)CC(C)(C)CC1=O)C1=C(O)CC(C)(C)CC1=O	–	inactive: -21.8%
O=C(O)CN1C(=O)/C(=C\c2cc(Br)ccc2OCc2ccc([N+](=O)[O-])cc2)SC1=S	inconclusive: 39.8 µM [inhibitor, single point]	–
CNC(=O)N1CCC(C2CCN(C(=O)c3ccco3)C2)CC1 (stereo not given)	–	inactive: 22.7%

Structure (SMILES)	Potency	activity change, negative = inhibition
CC(CNC(=O)CN1C(=O)c2cccnc2Oc2ccc(Cl)cc21)c1ccccc1 (stereo not given)	inconclusive: 28.2 µM [inhibitor, single point]	–
COC(=O)c1cc2c3ccccc3n(C)c2s1	inconclusive: 28.2 µM [inhibitor, single point]	–
Clc1ccc(-c2nnc(SCc3nc4ccccc4o3)o2)cc1	–	inactive: -9.51%
COc1ccc2c(c1)c(CN1CCc3nn(C)c(=O)n3CC1)cn2C	active: 31.6 µM	–
COc1ccc2cc(C(=O)N3C[C@@H](Oc4ccccc4)C[C@H]3C(=O)N3CCOCC3)[nH]c2c1	active: 28.2 µM	–
O=C(c1cc2ccccc2o1)N1CC=C(c2ccccc2)CC1	inconclusive: 39.8 µM [inhibitor, single point]	–
CCOC(=O)c1c(NC(=O)CSc2ccccn2)sc2c1CCC2	–	inactive: -9.13%
O=S1(=O)c2c(cccc2N2CCSCC2)Oc2ccccc2CN1Cc1cn(Cc2cccc(F)c2)nn1	inconclusive: 22.4 µM [inhibitor, partial curve, poor fit]	–
COc1cccc(C2=CC(c3cc(Br)ccc3F)n3nnnc3N2)c1 (stereo not given)	inconclusive: 28.2 µM [inhibitor, partial curve, poor fit]	–
CCCOc1c(Cl)cc(C(=O)Nc2nnc(CC)s2)cc1OC	–	inactive: 2.13%
O=C(Cn1c(SCCOc2ccc(Cl)cc2)nc2ccccc21)N1CCCCC1	inconclusive: 25.1 µM [inhibitor, partial curve, poor fit]	–
Cc1nc(N(C)C)ncc1C(=O)NCc1ccccc1Cl	inconclusive: 39.8 µM [inhibitor, single point]	–
Cc1cccnc1NC(=O)c1cc(-c2cccs2)nc2ccccc12	inconclusive: 25.1 µM [inhibitor, partial curve, poor fit]	–
COc1ccccc1NC(=O)Cn1c(=O)c(CNc2ccc(C)cc2)cc2cc3c(cc21)OCCO3	inconclusive: 6.31 µM [inhibitor, partial curve, poor fit]	–
COc1ccc(CCNC(=O)C(=O)NCC(c2ccco2)S(=O)(=O)c2ccccc2)cc1 (stereo not given)	–	inconclusive: -31.3% [inhibitor]
O=C(NCCc1ccco1)C1CCN(c2ccc(C(F)(F)F)cn2)CC1	–	inactive: -6.67%
Cn1cc(CN2CC[C@@H](c3ccc4c(c3)OCO4)[C@H](O)C2)c2ccccc21	inconclusive: 28.2 µM [inhibitor, single point]	–
CN(Cc1ccccc1C(F)(F)F)S(=O)(=O)c1cccc(C(F)(F)F)c1	–	inactive: -1.59%
Cc1oc2ccc(OCc3cccc(Cl)c3)cc2c1C(=O)O	inconclusive: 39.8 µM [inhibitor, single point]	–
CCn1c(=O)n(CC)c2cc(Sc3ccccc3)c(NC(=O)c3cccc(OC)c3)cc21	–	inactive: 1.43%
c1ccc(-c2cnc(Nc3ccc(N4CCOCC4)cc3)c3c2CCO3)nc1	inconclusive: 31.6 µM [inhibitor, partial curve]	–
